Source: the antibiotic and cytotoxicity screens of Wong et al. (2023)
The other results are listed elsewhere or left out.

Tests used:
HSkMC = human skeletal muscle cells; assay: cytotoxicity call (relative viability < 0.9); details: 10 µM
HepG2 = assay: cytotoxicity call (relative viability < 0.9); details: 10 µM
S. aureus RN4220 = assay: growth inhibition call (relative growth <= 0.2); details: 50 µM

COc1cccc(S(=O)(=O)Nc2ccc3c(c2)C(=O)N(C)C[C@@H](OC)[C@@H](C)CN(C(=O)Cc2cccnc2)[C@@H](C)CO3)c1
inactive: cytotoxicity call (HSkMC) | cytotoxicity call (HepG2) | growth inhibition call (S. aureus RN4220)

C[C@@H]1CN([C@@H](C)CO)C(=O)c2cccc(NC(=O)Nc3ccc(F)cc3)c2O[C@@H]1CN(C)C(=O)Nc1ccc(C(F)(F)F)cc1
inactive: cytotoxicity call (HSkMC) | cytotoxicity call (HepG2) | growth inhibition call (S. aureus RN4220)

COc1ccccc1CNC(=O)C[C@H]1C[C@@H]2c3cc(NC(=O)C4CCOCC4)ccc3O[C@@H]2[C@H](CO)O1
inactive: cytotoxicity call (HSkMC) | cytotoxicity call (HepG2) | growth inhibition call (S. aureus RN4220)

COc1cc([C@@H](O)[C@@H](CO[C@@H]2O[C@H](CO)[C@@H](O)[C@H](O)[C@H]2O)Oc2ccc(/C=C/CO)cc2OC)ccc1O
inactive: cytotoxicity call (HSkMC) | cytotoxicity call (HepG2) | growth inhibition call (S. aureus RN4220)

COCC(=O)N1C[C@H](C)[C@@H](OC)CN(C)C(=O)c2ccc(NC(=O)c3ccc(OC)cc3)cc2OC[C@H]1C
inactive: cytotoxicity call (HSkMC) | cytotoxicity call (HepG2) | growth inhibition call (S. aureus RN4220)
